Test [1] concerns the target T1, human TNF-α (human, UniProt P01375 part only). Put plainly: cell-based or functional assay.
For test [2], the target named is T2, human Activin A (human, UniProt A4D1W7 311-426, Activin A is a disulfide-linked homodimer of two identical inhibin beta A chains. The chain is given once.).
T2 sequence: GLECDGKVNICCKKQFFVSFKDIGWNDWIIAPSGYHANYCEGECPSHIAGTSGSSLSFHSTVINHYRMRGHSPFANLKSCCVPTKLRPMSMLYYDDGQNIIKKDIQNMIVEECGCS
The test can be described thus: cell-based or functional assay.

The target in test [3] is T1, human TNF-α. Put plainly: BLI (Octet RED96), affinity-purified antagonist captured on biosensor, ligand in solution. The protocol:
(§1) In this example, the human ligand binding activities of several bifunctional antagonist molecules were measured by biolayer interferometry (BLI) using Octet RED96 (FortéBIO, Pall Corporation, USA). Binding analysis was performed by capturing the polypeptide bifunctional antagonists to biosensors. To measure the rate of association and dissociation, the bifunctional antagonists-captured biosensors were dipped in wells containing different concentrations of ligands (such as TNF-α, Activin A, Activin B, Activin AB, myostatin, and GDF-11) diluted in 1× kinetic buffer for 10 min followed by 10-20 min in 1× kinetic buffer. The bifunctional polypeptide antagonists-captured sensors were also submerged in wells containing 1× kinetic buffer to allow single reference subtraction in order to compensate for natural dissociation of the captured bifunctional antagonists. The binding sensorgrams were collected using the 8-channel detection mode on the biosensor. Data were acquired and analyzed using the FortéBIO data acquisition software v11.1 (FortéBIO, Pall Corporation, USA).
Background: In BLI a coated tip is dipped into the sample, and binding shifts an interference pattern.

Test [4] addresses T2, human Activin A. Described as above. As for the experimental part: as §1

The values that follow come from patent US20230391863A1 (published 2023).

T1 sequence (P01375 77-233 limits assumed): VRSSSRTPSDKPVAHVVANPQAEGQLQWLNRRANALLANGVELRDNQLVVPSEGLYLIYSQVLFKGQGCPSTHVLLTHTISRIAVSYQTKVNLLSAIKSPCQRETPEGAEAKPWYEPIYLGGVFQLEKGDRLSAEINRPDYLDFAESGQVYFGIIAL

B1: A305 (SEQ ID NO: 60) (Fc fusion)
chain: LPAQVAFTPYAPEPGSTCRLREYYDQTAQMCCSKCSPGQHAKVFCTKTSDTVCDSCEDSTYTQLWNWVPECLSCGSRCSSDQVETQACTREQNRICTCRPGWYCALSKQEGCRLCAPLRKCRPGFGVARPGTETSDVVCKPCAPGTFSNTTSSTDICRPHQICNVVAIPGNASMDAVCTSTSPTRSMAPGAVHLPQPVSTRSQHTQPTPEPSTAPSTSFLLPMGPSPPAEGSTGDGGGGSGGGGSGGGGS[human IgG1 Fc left out]GGGGSGGGGSGGGGSETRECIYYNANWELERTNQSGLERCEGEQDKRLHCYASWRNSSGTIELVKKGCWLDDFNCYDRQECVATEENPQVYFCCCEGNFCNERFTHLPEAGGPEVTYEPPPTAPT
In general, Kd refers to a measure of binding affinity in units of concentration. Higher therefore signals weaker binding. Regarding B1, in test [1], the “IC50; neutralisation of human TNF-α, NF-κB luciferase reporter cells (K536-NF-κB-luc), RLU against A305 (nM Log)” value stood at 0.1 nM. Moreover, in test [2], the “IC50; neutralisation of human Activin A (2 nM), Smad2/3 luciferase reporter cells (CAGA-luc), RLU against A305 (nM Log)” value came out at 3.7 nM. The Kd in test [3] was about 0.1 nM; in test [4] it was about 0.14 nM.

B2: A711 (SEQ ID NO: 49) (Fc fusion)
chain: IYPSGVIGLVPHLGDREKRDSVCPQGKYIHPQNNSICCTKCHKGTYLYNDCPGPGQDTDCRECESGSFTASENHLRHCLSCSKCRKEMGQVEISSCTVDRDTVCGCRKNQYRHYWSENLFQCFNCSLCLNGTVHLSCQEKQNTVCTCHAGFFLRENECVSCSNCKKSLECTKLCLPQIENVKGTEDSGTTGGGGSGGGGSGGGGS[human IgG1 Fc left out]GGGGSGGGGSGGGGSETRECIYYNANWELERTNQSGLERCEGEQDKRLHCYASWRNSSGTIELVKKGCWLDDFNCYDRQECVATEENPQVYFCCCEGNFCNERFTHLPEAGGPEVTYEPPPTAPT
With B2, in test [1], the “IC50; neutralisation of human TNF-α, NF-κB luciferase reporter cells (K536-NF-κB-luc), RLU against A711 (nM Log)” value worked out at 0.1 nM. The “IC50; neutralisation of human Activin A (2 nM), Smad2/3 luciferase reporter cells (CAGA-luc), RLU against A711 (nM Log)” value in test [2] came to 4.1 nM. For the same molecule, the equilibrium dissociation constant (Kd) in test [3] was about 0.1 nM; in test [4] it was about 0.13 nM.
